Measurements taken from the supplement of paper PMC6089552.
Out of some 3,200 compounds screened, about 300 (9.4%) showed activity. This is a selection; strong and weak results do not stand in their true shares.

Tested on: A673/TR/shEF
Assay: cell viability (LOESS-normalised, relative to median of negative controls) (log2 ratio); higher = more viable cells (less compound effect), active = hit call of the paper (over 3 MAD below the median)
Conditions: treatment time: 72 h
Summary of the method: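 A673/TR/shEF Ewing sarcoma cells were plated at 1,500 per well in 384-well plates and cultured with or without doxycycline, added 24 h before compounds, to induce EWS-FLI1 shRNA knockdown. Library compounds at two or more concentrations, alongside DMSO controls, were applied for three days. Cell viability was measured by CellTiter-Glo luminescence on an Envision reader. Readings were LOESS-corrected per plate, divided by the median of negative controls and log2-transformed, and hits were wells lying at least three median absolute deviations from the median of all screened wells.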

[1] = 0.103 µM, library screen: screen3, EWS-FLI1 expression: high (no doxycycline)
[2] = 0.103 µM, library screen: screen3, EWS-FLI1 expression: low (doxycycline-induced shRNA knockdown)
[3] = 0.308 µM, library screen: screen3, EWS-FLI1 expression: high (no doxycycline)
[4] = 0.308 µM, library screen: screen3, EWS-FLI1 expression: low (doxycycline-induced shRNA knockdown)
[5] = 0.926 µM, library screen: screen3, EWS-FLI1 expression: high (no doxycycline)
[6] = 0.926 µM, library screen: screen3, EWS-FLI1 expression: low (doxycycline-induced shRNA knockdown)
[7] = 2.8 µM, library screen: screen3, EWS-FLI1 expression: high (no doxycycline)
[8] = 2.8 µM, library screen: screen3, EWS-FLI1 expression: low (doxycycline-induced shRNA knockdown)
[9] = 8.3 µM, library screen: screen3, EWS-FLI1 expression: high (no doxycycline)
[10] = 8.3 µM, library screen: screen3, EWS-FLI1 expression: low (doxycycline-induced shRNA knockdown)
[11] = 25 µM, library screen: screen3, EWS-FLI1 expression: high (no doxycycline)
[12] = 25 µM, library screen: screen3, EWS-FLI1 expression: low (doxycycline-induced shRNA knockdown)
[13] = 0.25 µM, library screen: screen2, EWS-FLI1 expression: high (no doxycycline)
[14] = 0.25 µM, library screen: screen2, EWS-FLI1 expression: low (doxycycline-induced shRNA knockdown)
[15] = 2.5 µM, library screen: screen2, EWS-FLI1 expression: high (no doxycycline)
[16] = 2.5 µM, library screen: screen2, EWS-FLI1 expression: low (doxycycline-induced shRNA knockdown)
[17] = 0.25 µM, library screen: screen1, EWS-FLI1 expression: high (no doxycycline)
[18] = 0.25 µM, library screen: screen1, EWS-FLI1 expression: low (doxycycline-induced shRNA knockdown)
[19] = 2.5 µM, library screen: screen1, EWS-FLI1 expression: high (no doxycycline)
[20] = 2.5 µM, library screen: screen1, EWS-FLI1 expression: low (doxycycline-induced shRNA knockdown)

For `C#Cc1cccc(Nc2ncnc3cc(OCCOC)c(OCCOC)cc23)c1`, the “cell viability (log2)” value [1] was inactive: 0.107, the “cell viability (log2)” value [2] was inactive: 0.0915 and the “cell viability (log2)” value [3] was inactive: 0.189. For the same compound, the “cell viability (log2)” value [4] was inactive: 0.0523, the “cell viability (log2)” value [5] was inactive: 0.0696 and the “cell viability (log2)” value [6] was inactive: 0.0933. The “cell viability (log2)” value [7] was inactive: 0.0439, the “cell viability (log2)” value [8] was inactive: 0.0596 and the “cell viability (log2)” value [9] was inactive: 0.105. For the same compound, the “cell viability (log2)” value [10] was inactive: 0.0233, the “cell viability (log2)” value [11] was inactive: -0.0778 and the “cell viability (log2)” value [12] was inactive: -0.0451.

With `Cn1c(=O)c2[nH]c(-c3ccccc3)nc2n(C)c1=O` the “cell viability (log2)” value [13] was inactive: 0.122, the “cell viability (log2)” value [14] was inactive: 0.0406 and the “cell viability (log2)” value [15] was inactive: 0.0445. For the same compound, the “cell viability (log2)” value [16] was inactive: 0.0254.

With `NS(=O)(=O)c1cc2c(cc1Cl)NC=NS2(=O)=O` the “cell viability (log2)” value [1] was inactive: 0.138, the “cell viability (log2)” value [2] was inactive: 0.0545 and the “cell viability (log2)” value [17] was inactive: 0.00612. For the same compound, the “cell viability (log2)” value [18] was inactive: 0.0491, the “cell viability (log2)” value [13] was inactive: 0.156 and the “cell viability (log2)” value [14] was inactive: 0.0723. The “cell viability (log2)” value [3] was inactive: 0.112, the “cell viability (log2)” value [4] was inactive: 0.103 and the “cell viability (log2)” value [5] was inactive: 0.0845. The “cell viability (log2)” value [6] was inactive: 0.0899, the “cell viability (log2)” value [19] was inactive: 0.136 and the “cell viability (log2)” value [20] was inactive: 0.208. The “cell viability (log2)” value [15] was inactive: 0.111, the “cell viability (log2)” value [16] was inactive: 0.078 and the “cell viability (log2)” value [7] was inactive: 0.171. The “cell viability (log2)” value [8] was inactive: 0.125, the “cell viability (log2)” value [9] was inactive: 0.0654 and the “cell viability (log2)” value [10] was inactive: 0.0798. For the same compound, the “cell viability (log2)” value [11] was inactive: 0.0494 and the “cell viability (log2)” value [12] was inactive: 0.139.

With `CC(=O)O[C@@H]1CC2C(C)(C)CCC(=O)[C@]2(C)C2CC[C@@]3(C)[C@H](c4ccoc4)OC(=O)C4OC43[C@@]21C` (some centres undefined) the “cell viability (log2)” value [17] was inactive: 0.0305, the “cell viability (log2)” value [18] was inactive: 0.0828 and the “cell viability (log2)” value [19] was inactive: 0.127. For the same compound, the “cell viability (log2)” value [20] was inactive: 0.0866.

In the case of `CN1CCN(C2Cc3ccccc3Sc3ccc(Cl)cc32)CC1` (centres undefined), the “cell viability (log2)” value [13] is reported as inactive: 0.121, the “cell viability (log2)” value [14] is reported as inactive: 0.0659 and the “cell viability (log2)” value [15] is reported as inactive: 0.0476. The “cell viability (log2)” value [16] was inactive: 0.0359.

For `NS(=O)(=O)c1cc2c(cc1Cl)NC(C(Cl)Cl)NS2(=O)=O` (centres undefined), the “cell viability (log2)” value [17] was inactive: 0.0496, the “cell viability (log2)” value [18] was inactive: 0.145 and the “cell viability (log2)” value [19] was inactive: 0.174. The “cell viability (log2)” value [20] was inactive: 0.206.

In the case of `CN[C@@H]1[C@H](O)[C@H](NC)[C@H]2O[C@@]3(O)C(=O)C[C@@H](C)O[C@H]3O[C@@H]2[C@H]1O`, the “cell viability (log2)” value [1] is reported as inactive: 0.0855, the “cell viability (log2)” value [2] is reported as inactive: 0.0941 and the “cell viability (log2)” value [17] is reported as inactive: 0.118. For the same compound, the “cell viability (log2)” value [18] was inactive: 0.0608, the “cell viability (log2)” value [3] was inactive: 0.12 and the “cell viability (log2)” value [4] was inactive: 0.1. For the same compound, the “cell viability (log2)” value [5] was inactive: 0.119, the “cell viability (log2)” value [6] was inactive: 0.0426 and the “cell viability (log2)” value [19] was inactive: 0.12. For the same compound, the “cell viability (log2)” value [20] was inactive: 0.102, the “cell viability (log2)” value [7] was inactive: 0.0429 and the “cell viability (log2)” value [8] was inactive: 0.0599. For the same compound, the “cell viability (log2)” value [9] was inactive: 0.0864, the “cell viability (log2)” value [10] was inactive: 0.0884 and the “cell viability (log2)” value [11] was inactive: 0.0812. The “cell viability (log2)” value [12] was inactive: 0.13.

With `CN[C@H](CC(=O)O)C(=O)O` the “cell viability (log2)” value [17] was inactive: 0.00235, the “cell viability (log2)” value [18] was inactive: 0.0602 and the “cell viability (log2)” value [13] was inactive: 0.204. For the same compound, the “cell viability (log2)” value [14] was inactive: 0.0919, the “cell viability (log2)” value [19] was inactive: 0.0429 and the “cell viability (log2)” value [20] was inactive: 0.111. The “cell viability (log2)” value [15] was inactive: 0.13 and the “cell viability (log2)” value [16] was inactive: 0.0445.

In the case of `COc1ccc2c(c1)c(CC(=O)Nc1ccc(NC(C)=O)cc1)c(C)n2C(=O)c1ccc(Cl)cc1`, the “cell viability (log2)” value [13] is reported as inactive: -0.0274, the “cell viability (log2)” value [14] is reported as inactive: 0.0874 and the “cell viability (log2)” value [15] is reported as inactive: 0.0757. For the same compound, the “cell viability (log2)” value [16] was inactive: 0.214.

`CN(N=O)C(=O)N[C@@H]1[C@@H](O)[C@H](O)[C@@H](CO)O[C@@H]1O` was tested, and the “cell viability (log2)” value (0.025 µM, library screen: screen2, EWS-FLI1 expression: high (no doxycycline)) was inactive: 0.107, the “cell viability (log2)” value (0.025 µM, library screen: screen2, EWS-FLI1 expression: low (doxycycline-induced shRNA knockdown)) was inactive: 0.0491 and the “cell viability (log2)” value [1] was inactive: 0.0693. The “cell viability (log2)” value [2] was inactive: 0.0836, the “cell viability (log2)” value [17] was inactive: 0.057 and the “cell viability (log2)” value [18] was inactive: -0.0645. For the same compound, the “cell viability (log2)” value [13] was inactive: 0.161, the “cell viability (log2)” value [14] was inactive: 0.048 and the “cell viability (log2)” value [3] was inactive: 0.0762. For the same compound, the “cell viability (log2)” value [4] was inactive: 0.0798, the “cell viability (log2)” value [5] was inactive: 0.162 and the “cell viability (log2)” value [6] was inactive: 0.137. The “cell viability (log2)” value [19] was inactive: 0.143, the “cell viability (log2)” value [20] was inactive: 0.0187 and the “cell viability (log2)” value [15] was inactive: 0.179. The “cell viability (log2)” value [16] was inactive: 0.059, the “cell viability (log2)” value [7] was inactive: 0.133 and the “cell viability (log2)” value [8] was inactive: 0.0421. For the same compound, the “cell viability (log2)” value [9] was inactive: 0.135, the “cell viability (log2)” value [10] was inactive: 0.04 and the “cell viability (log2)” value (25 µM, library screen: screen2, EWS-FLI1 expression: high (no doxycycline)) was inactive: 0.177. The “cell viability (log2)” value (25 µM, library screen: screen2, EWS-FLI1 expression: low (doxycycline-induced shRNA knockdown)) was inactive: 0.0357, the “cell viability (log2)” value [11] was inactive: 0.137 and the “cell viability (log2)” value [12] was inactive: 0.0878.

`Cc1ccc(-c2nn(C(C)(C)C)c3ncnc(N)c23)cc1` was tested, and the “cell viability (log2)” value (0.025 µM, library screen: screen1, EWS-FLI1 expression: high (no doxycycline)) was inactive: 0.00835, the “cell viability (log2)” value (0.025 µM, library screen: screen1, EWS-FLI1 expression: low (doxycycline-induced shRNA knockdown)) was inactive: -0.00557 and the “cell viability (log2)” value [17] was inactive: 0.0184. For the same compound, the “cell viability (log2)” value [18] was inactive: 0.0452, the “cell viability (log2)” value [19] was inactive: -0.0765 and the “cell viability (log2)” value [20] was inactive: 0.104. The “cell viability (log2)” value (25 µM, library screen: screen1, EWS-FLI1 expression: high (no doxycycline)) was active: -0.108 and the “cell viability (log2)” value (25 µM, library screen: screen1, EWS-FLI1 expression: low (doxycycline-induced shRNA knockdown)) was inactive: -0.07.

`NCCCC(=O)O` was tested, and the “cell viability (log2)” value [17] was inactive: 0.0628, the “cell viability (log2)” value [18] was inactive: 0.0888 and the “cell viability (log2)” value [13] was inactive: 0.148. The “cell viability (log2)” value [14] was inactive: 0.12, the “cell viability (log2)” value [19] was inactive: 0.21 and the “cell viability (log2)” value [20] was inactive: 0.0413. The “cell viability (log2)” value [15] was inactive: 0.0279 and the “cell viability (log2)” value [16] was inactive: 0.142.

With `NCCc1cnc[nH]1` the “cell viability (log2)” value [17] was inactive: 0.0774, the “cell viability (log2)” value [18] was inactive: 0.0793 and the “cell viability (log2)” value [13] was inactive: 0.172. The “cell viability (log2)” value [14] was inactive: 0.046, the “cell viability (log2)” value [19] was inactive: 0.16 and the “cell viability (log2)” value [20] was inactive: 0.0294. For the same compound, the “cell viability (log2)” value [15] was inactive: 0.142 and the “cell viability (log2)” value [16] was inactive: 0.101.
